Here are results for 42 compounds from ChEMBL document CHEMBL4888484, “Replenishing the malaria drug discovery pipeline: Screening and hit evaluation of the MMV Hit Generation Library 1 (HGL1) against asexual blood stage Plasmodium falciparum ,using a nano luciferase reporter read-out” (2022).

Molecules are shown by their SMILES. In all, about 150,000 compounds went through this assay and about 540 (0.36%) showed an effect of 50% or more. The list shows a part of the results.

For the assay, the system named is Plasmodium falciparum. The experiment in a line: Primary screen in NF54 nanoGlo assay, in single point, at 2uM, 72h; a lower Z score goes with more inhibition. Conditions: timepoint 72 hour. In kind it is functional, Erythrocyte.
With `O[C@H](COCc1ccccc1)Cn1nnc(-c2ccsc2)n1`, the “% Inhibition” value was -2% and the Z score was 0.37.
For `Cc1c(CC(=O)N2CCC[C@H](O)C2)c2c(n1Cc1ccc(F)cc1)CCCC2=O`, in that order: -14% and 1.62.
For `CN1CCN(c2ccc(N3CCN(C(=O)COc4ncccn4)CC3)nn2)CC1`, in that order: -8% and 1.27.
For `CC(C)(C)c1nnc2ccc(N[C@H](CO)Cc3ccccc3)nn12`, in that order: 13% and -1.22.
In the case of `CC(C)n1c(=O)[nH]c2cc(-c3noc(-c4ccc(C(F)(F)F)cc4)n3)ccc21`, the “% Inhibition” value amounted to 0% and the Z score amounted to 0.01.
The matching figures for `C[C@@H](Cc1ccncc1)NC(=O)Cc1c[nH]c(=O)[nH]c1=O`: -6% and 0.56.
The matching figures for `O=C(NC[C@H]1Cc2ccccc21)c1ccc(-c2ccco2)[nH]c1=O`: -14% and 1.63.
For `COc1ccc(CC(=O)N2C3CCC2Cn2c(CC(C)C)nnc2C3)cc1` (centres undefined), in that order: 3% and -0.42.
With `C[C@H]1NC(=O)Cc2ccc(cc2)OCCn2cc(nn2)CNC(=O)[C@H](Cc2ccccc2)NC1=O`, the “% Inhibition” value is on record as -3% and the Z score amounted to 0.55.
The matching figures for `COc1cccc(-c2ncc(CNC(=O)CN3C(=O)CNC3=O)s2)c1`: 9% and -0.87.
With `O=C(CCC(=O)c1ccccc1)Nc1ccc2c(c1)CCC2`, the “% Inhibition” value was determined as 3% and the Z score is -0.26.
For `Cc1ncc(C(=O)NCCc2c(C)n3c4c(cccc24)CCC3)c(C)n1`, in that order: -16% and 1.6.
For `C[C@H]1c2ccc(Cl)n2CCN1CCC(=O)N1CCN(C)CC1`, in that order: -1% and 0.11.
For `c1ccc2c(c1)CC(NCCc1nc(C3CC3)no1)C2`, in that order: -18% and 1.79.
Take `CC(C)C[C@H]1C(=O)NCCN1c1ncncc1Br`: the “% Inhibition” value is -11% and the Z score is given as 1.01.
Consider `CCCNc1ccc(C#N)cc1NC(=O)CC1(O)CCCC1`, for which the “% Inhibition” value is -9% and the Z score came out at 1.19.
For `CS(=O)(=O)N(C1CCOCC1)C1CN(S(=O)(=O)c2cccc3nsnc23)C1`, in that order: -6% and 1.1.
The matching figures for `O=C(NCc1ccccc1CN1CCOCC1)Nc1cccnc1`: -4% and 0.46.
Take `CNC(=O)c1nsc(C(=O)N2CCN(c3cccc(Cl)c3)CC2)c1N`: the “% Inhibition” value is reported as -14% and the Z score was 1.58.
`O=S(=O)(Nc1ccc(F)cc1OCCC(F)(F)F)C1CC1`: the “% Inhibition” value is -11% and the Z score amounted to 1.07.
The matching figures for `Cc1cc(-n2cnnc2Cc2ccncc2)n(C)n1`: -16% and 2.95.
For `CC(C)c1ccc(S(=O)(=O)N(CCCN2CCCC2=O)CC(=O)N2CCNCC2)cc1`, in that order: -8% and 0.78.
On to `COc1ccccc1-c1ccnc(-n2ncc(C(=O)NCC3(N4CCOCC4)CCCCC3)c2C)n1`, for which the “% Inhibition” value is on record as -6% and the Z score is 0.86.
For `CC(=O)N1CCN(C(=O)[C@@H]2CC3(CN(Cc4ccccc4)C3)CN2C)CC1`, in that order: -10% and 1.18.
For `CN(C)[C@H]1CCCCN(Cc2ccccc2OCC(=O)N2CCCCC2)C1`, in that order: -6% and 1.27.
For `CCC[C@@H](CNc1ncc(C)c(N(C)C)n1)N(C)C`, in that order: 1% and -0.11.
Consider `Cc1noc(C)c1S(=O)(=O)NCc1ccc(-c2ccoc2)cc1`, for which the “% Inhibition” value is -1% and the Z score is 0.1.
For `COc1ccccc1OCC(=O)Nc1nc(-c2ccc(C)o2)ns1`, in that order: -11% and 1.38.
The matching figures for `Cc1cccc(C)c1[C@H](C)NCC(=O)Nc1cccnn1`: -6% and 1.07.
As to `CC1CCN([C@@H](CNC(=O)c2cccc(C(=O)O)c2)c2cccs2)CC1`, the “% Inhibition” value is -7% and the Z score was determined as 0.95.
The matching figures for `CC[C@H]1COCCN1C(=O)c1n[nH]c2c1CN(C)CC2`: -3% and 0.48.
The matching figures for `CCc1cnc(C)nc1N1C[C@@H]2OC(=O)N(CCCN3CCOCC3)[C@@H]2C1`: -18% and 3.15.
The matching figures for `CCCN1CC[C@@H]2N(C(=O)c3ccc4c(c3)CCCN4)CCC[C@@]2(CO)C1`: -12% and 1.11.
On to `CC(C)Cc1cc(CNC(=O)Cc2cccnc2)on1`, for which the “% Inhibition” value was -23% and the Z score amounted to 2.18.
The matching figures for `COc1ccc2cc1Oc1cccc(c1)CO[C@H]1CCN(C(=O)c3ccc(CO)cc3)C[C@H]1NC(=O)CC2`: -7% and 1.25.
The matching figures for `O=C1NCCN1CCn1ccnc1-c1cccc2nonc12`: -8% and 1.16.
For `O=C1CN(C(=O)CN2CC3(CCCC3)c3cc(Br)ccc32)CCN1`, in that order: 2% and -0.39.
On to `CCN(CC)c1ccc(NC(=O)[C@@H]2CCCO2)cn1`, for which the “% Inhibition” value is reported as 5% and the Z score is -0.69.
`C/C(=C\c1ccco1)[C@@H]1CC(=O)Nc2cc(N3CCCC3)c(C(N)=O)cc21`: the “% Inhibition” value is on record as -11% and the Z score is 1.45.
For `Cc1ccc(-c2nc(C3CCCC3)n(CCCO)n2)o1`, in that order: -27% and 3.4.
For `c1cnc(N2C[C@H]3CCC[C@@H](C3)C2)nc1`, in that order: -10% and 1.33.
The matching figures for `COc1cc(N2C[C@@H](C(=O)N3CC(=O)Nc4ccccc43)CC2=O)cc(OC)c1OC`: -6% and 0.89.

In general, % Inhibition refers to the relative decrease from the control value, in per cent.
